Measurements from PubChem BioAssay AID1240 (Sanford-Burnham Center for Chemical Genomics, 2008).
The whole screen tested about 50,000 compounds, of which about 800 (1.6%) showed an effect of 50% or more. The list shows a part of the results.

What follows are compounds tested against Bcl-2-like protein 10 (Homo sapiens) (UniProt Q9HD36) (assay: Phenotype converters, Bcl-B/TR3 peptide binding displacement, primary biochemical FP (AID 1240;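 note: 0% = Bcl-B with tracer peptide and DMSO and 100% = tracer peptide lacking Bcl-B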)). Settings: GST-Bcl-B / FITC-TR3 peptide fluorescence polarization; stronger effect = higher value; compound at 3.75 mg/L.
Chain of UniProt Q9HD36 (Q9HD36 whole entry, looked up): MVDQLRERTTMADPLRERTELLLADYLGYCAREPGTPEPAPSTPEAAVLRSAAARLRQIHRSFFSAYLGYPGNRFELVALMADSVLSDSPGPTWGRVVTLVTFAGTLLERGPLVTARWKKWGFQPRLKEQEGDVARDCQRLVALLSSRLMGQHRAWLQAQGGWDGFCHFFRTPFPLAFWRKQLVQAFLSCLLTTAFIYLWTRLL

| SMILES | displacement [%] |
| --- | --- |
| CCOc1ccc(/C=C2/NC(=O)NC2=O)cc1Cl | -14.7 |
| CC1(C)CC(C(CCN)c2ccc(F)cc2)CCO1 (configuration not stated) | 6.8 |
| CCc1cc(=O)oc2cc(OCC(=O)c3ccc(Cl)cc3)ccc12 | 10.5 |
| O=C(Nc1c(Cl)cccc1Cl)C1C2CC/C=C\CC/C=C/CCC21 (configuration not stated) | 3.6 |
| CC1(C)CC(=O)C=C(NCCN2CCN(C(=O)Nc3ccccc3)CC2)C1 | -16.1 |
| CCCCNCCCCCOc1cccc(OC)c1 | 8.6 |
| CC(=O)N(C)c1ccc(NC(=O)COc2ccc(Cl)cc2Cl)cc1 | -16.3 |
| COc1ccc(N(CC(=O)NC(C)c2ccccc2)S(=O)(=O)c2ccc(OC)c(OC)c2)cc1 (configuration not stated) | -4.7 |
| O=C(O)C1C(C(=O)Nc2cccc(Cl)c2)C2C=CC1C21CC1 (configuration not stated) | 13.8 |
| O=C(NCCc1ccccc1)c1ccc(I)cc1 | 9.7 |
| Cc1ccc(NC(=S)NC(=O)C(=O)Nc2ccccc2)cc1 | 10.5 |
| CC(C)CNC(=O)C(=O)Nc1cccc(Cl)c1Cl | 4.3 |
| O=[N+]([O-])c1ccc2nc(SCCc3ccccc3)sc2c1 | -7.6 |
| CCOc1ccc(OCC)c(C2C(C#N)=C(N)Oc3[nH]c(=O)[nH]c(=O)c32)c1 (configuration not stated) | -4.8 |
| Cc1cccc(Oc2cc(NC(=O)c3cccc(F)c3)cc([N+](=O)[O-])c2)c1 | -4.7 |
| COc1ccc(-n2c(=O)c3c4c(sc3n3cnnc23)CCCC4)cc1 | -4.4 |
| CCSCCOC(=O)C1=C(C)NC2=C(C(=O)CCC2)C1c1cc(Br)ccc1OC (configuration not stated) | 0.4 |
| COc1ccc2oc(C(F)F)cc(=O)c2c1 | 14.6 |
| S=c1[nH]nc(-c2ccccc2Br)n1-c1ccccc1 | 10.4 |
| CCOC(=O)c1c(NC(=O)CN2CCN(C)CC2)sc2c1CCC(C)C2 (configuration not stated) | -1.1 |
| N#C/C(=C\c1cn(CC(=O)Nc2ccccc2)c2ccccc12)C(=O)NCc1ccccc1 | 61.2 |
| O=C1OC(c2ccc(Br)cc2)=C/C1=C\c1cc([N+](=O)[O-])ccc1Cl | -14.1 |

| SMILES | displacement [%] |
| --- | --- |
| CCOc1ccc(C2=C/C(=C/c3cccs3)C(=O)O2)cc1 | 5.5 |
| CCOc1ccc(N2C(=O)/C(=C/c3ccccc3OC)SC2=S)cc1 | -3.4 |
| S=C(Nc1ccccc1)Nc1ccc(Oc2ccc(NC(=S)Nc3ccccc3)cc2)cc1 | 4.6 |
| Cc1c(Br)c(=O)[nH]c(=O)n1Cc1ccccc1 | -8.1 |
| C#CCOc1ccc(/C=C2\C(=O)NC(=O)N(c3ccc(OCC)cc3)C2=O)cc1Br | -32.4 |
| Cc1cc(=O)n(C)c(=O)n1CCCCO | -6.1 |
| Cc1ccc2c(c1)N(C(=O)CN1C(=O)c3ccccc3C1=O)C(C)(C)c1ssc(=S)c1-2 | -3 |
| CCOc1cc(C=O)ccc1OCc1c(C)no[n+]1[O-] | -3.8 |
| O=C(/C=C(/O)c1ccc(Cl)cc1)C(=O)Nc1ccccc1 | -3.3 |
| CC(C(=O)c1ccc(-c2ccccc2)cc1)[n+]1cccc(NC(=O)c2ccccc2)c1 (configuration not stated) | 11.6 |
| Cc1ccc(OCC(=O)Nc2ccc(F)c([N+](=O)[O-])c2)c(C)c1 | 4.8 |
| O=C(Nc1ccccc1Cl)c1ccn(C(=O)c2cccc(Cl)c2)n1 | 1.8 |
| O=C(CC1(C(F)(F)F)NCCN1)c1cccc([N+](=O)[O-])c1 | 1.3 |
| COc1cc(C=NN2CCN(Cc3ccc(C)cc3C)CC2)cc(Br)c1O | 10.3 |
| Cc1ccc(C(=O)O)cc1NC(=O)C1CC=CCC1C(=O)O (configuration not stated) | -5.3 |
| CCC(C(=O)NCCc1ccc(OC)c(OC)c1)c1ccccc1 (configuration not stated) | -2.5 |
| O=C(CSc1nc2sc3c(c2c(=O)[nH]1)CCCC3)N1CCCCC1 | -3 |
| CCOc1ccc(N(CC(=O)Nc2ccccc2CC)S(=O)(=O)c2ccc(SC)cc2)cc1 | 1.1 |
| COc1cccc(N(CC(=O)Nc2ccc(I)cc2)S(=O)(=O)c2ccccc2)c1 | 2.6 |
| O=C(NN=C(/C=C/c1ccccc1)/C=C/c1ccccc1)c1ccc(O)cc1O | -6.1 |
| O=C(c1ccc2c(c1)OCO2)N1CCCc2ccccc21 | 2.2 |
| COc1ccccc1C1C(C(C)=O)=C(O)C(=O)N1c1nc2ccccc2s1 (configuration not stated) | 7.7 |

| SMILES | displacement [%] |
| --- | --- |
| CCCc1c(O)nc(SCCN2CCOCC2)n(-c2ccccc2)c1=O | 8.1 |
| COCC(=O)Nc1ccc2ccccc2c1 | -2.7 |
| NS(=O)(=O)c1cccc(NC(=O)c2ccc([N+](=O)[O-])cc2)c1 | 8.4 |
| O=C(CCN1C(=O)/C(=C\c2cccs2)SC1=S)Nc1ccc(Cl)cc1 | 77.4 |
| COC(=O)c1sc(NC(=O)/C=C/c2ccco2)c(C(=O)OC)c1C | 15.3 |
| CCN(CC)CCCNC(=O)c1cccc([N+](=O)[O-])c1C | 18.5 |
| O=C(/C=C/c1ccc(-c2cccc(Cl)c2Cl)o1)c1cccs1 | 13.7 |
| COc1ccc(Cl)cc1C(=O)Nc1cc([N+](=O)[O-])ccc1Cl | 4.4 |
| COc1cc(C(=O)NC(NC(=S)Nc2ccc(C)cc2)C(Cl)(Cl)Cl)cc(OC)c1OC (configuration not stated) | -3.2 |
| Cc1ccc([N+](=O)[O-])cc1NC(=O)COc1ccccc1Cl | -8.6 |
| O=C(/C=C\Nc1ccc([N+](=O)[O-])cc1Br)c1ccc2c(c1)OCO2 | 3 |
| COc1ccc(CNS(=O)(=O)c2ccc3ccccc3c2)cc1 | -1.2 |
| CC(C)(C)CC(C)(C)NC(=O)CSc1ncc(-c2ccccc2)[nH]1 | -1.7 |
| O=C(COc1ccccc1[N+](=O)[O-])Nc1ccc(Cl)c(Cl)c1 | 12.1 |
| CCOc1ccc(N/C=C\C(=O)c2ccc(F)cc2)c([N+](=O)[O-])c1 | 5.1 |
| O=[N+]([O-])c1ccc(/C=N/NS(=O)(=O)c2ccc(Cl)cc2)cc1 | -0.3 |
| COc1ccccc1N1CCN(C(=O)CN(c2cc(Cl)ccc2OC)S(=O)(=O)c2ccc(C)cc2)CC1 | 9.1 |
| COc1ccc(CN2CCN(S(C)(=O)=O)CC2)c(OC)c1 | 5.6 |
| O=c1oc2cc([N+](=O)[O-])ccc2nc1/C=C(\O)c1cccs1 | 94 |
| CCOC(=O)C1=C(O)/C(=C/c2cccnc2)SC1=Nc1cccc2ccccc12 | 31.1 |
| CCNC(=O)CC1S\C(=N/N=C/C=C/c2ccccc2)NC1=O (configuration not stated) | 10 |
| O=C(COc1ccc(Br)cc1)Nc1cccc(Cl)c1 | -7.8 |

| SMILES | displacement [%] |
| --- | --- |
| CC(=O)Nc1c(C)cc(C2(c3cc(C)c(NC(C)=O)c(C)c3)CCCCC2)cc1C | 18.4 |
| CN(C)c1ccc([N+](=O)[O-])cc1/C=N/NC(=O)CCc1ccccc1O | 2.5 |
| CC(C)N=C1NS(=O)(=O)c2cc([N+](=O)[O-])ccc21 | 8.4 |
| Cc1nn(-c2cc(Cl)ccc2Cl)c(C)c1-c1cccc([N+](=O)[O-])c1 | 0.5 |
| CC1=C(C(=O)OCCOc2ccccc2)C(c2ccc(C)o2)C2=C(CC(C)(C)CC2=O)N1 (configuration not stated) | -12.8 |
| c1cc(CN2CCN(C3CCCCC3)CC2)ccn1 | -6.4 |
| CCCC(=O)Nc1ccc(NC(=O)c2ccc([N+](=O)[O-])o2)cc1 | -1.2 |
| O=C(O)CCCC(=O)N(Cc1ccccc1)Cc1ccccc1 | -11 |
| Cc1ccc(C(=O)N/C(=C/c2ccccc2Cl)C(=O)Nc2ccc(S(=O)(=O)Nc3nccs3)cc2)cc1 | -0.9 |
| COc1cccc(/C=N/NC(=O)c2cc(-c3ccc4ccccc4c3)n[nH]2)c1 | -7.4 |
| O=C(CN1C(=O)/C(=C/c2ccc(Br)cc2)SC1=S)Nc1ncc(Cc2cccc([N+](=O)[O-])c2)s1 | 17.9 |
| CC(=O)N/C(=C/c1ccc2c(c1)OCO2)C(=O)NC(Cc1ccccc1)C(=O)O (configuration not stated) | 2.7 |
| O=C(Nc1cccc(Cl)c1Cl)C1CN(S(=O)(=O)c2ccccc2)CCN1S(=O)(=O)c1ccccc1 (configuration not stated) | 13.6 |
| N#Cc1c(N)c(C(=O)c2ccc(Br)cc2)n2c1CCC2 | 6.7 |
| O=C(Nc1nc(-c2ccc(F)cc2F)cs1)c1c(F)cccc1F | -7.5 |
| COc1ccc(Cl)cc1NC(=O)C1=C(C)NC(=S)NC1c1ccccc1F (configuration not stated) | 14.5 |
| Fc1c(F)c(C(F)(F)F)c(F)c(F)c1Oc1cccc2cccnc12 | 29.7 |
| COc1ccc(Br)cc1CN1CCN(C(=O)c2ccc(-c3ccccc3)cc2)CC1 | 10.6 |
| CCOC(=O)c1ccc(-n2c(C)cc(/C=C3\NC(=O)NC3=O)c2C)cc1 | 10 |
| CC(C)C(=O)Nc1ncc2c(n1)CC(c1ccccc1)CC2=O (configuration not stated) | -4.4 |
| CC(=O)Nc1ccc(N=Cc2ccncc2)cc1 | 6.2 |
| CCC(Oc1ccccc1)C(=O)NCc1ccccc1 (configuration not stated) | -6.5 |

| SMILES | displacement [%] |
| --- | --- |
| CCc1ccc(OCCNC(=O)CN(c2ccc(C)cc2)S(C)(=O)=O)cc1 | -5.8 |
| Brc1ccc(-c2cs/c(=N/c3ccccn3)n2-c2ccccc2)cc1 | 7.9 |
| COc1ccc(-c2c(Cc3ccccc3)[nH]n3c(=O)c4c(nc23)CCC4)cc1 | -3.3 |
| Cn1cnnc1SCC(=O)n1c2ccccc2c2ccccc21 | -3 |
| Cc1cc(NC(=O)c2ccccc2Br)no1 | 2.2 |
| O=[N+]([O-])c1ccc2c(c1)C=C1CCCCC1(NCc1ccccc1)O2 (configuration not stated) | 2 |
| Cc1sc(NC(=O)C2CC2c2ccccc2)c(C#N)c1C (configuration not stated) | -0.9 |
| N/N=C1/NC(=O)C(Cc2cccc([N+](=O)[O-])c2)S1 (configuration not stated) | 5.5 |
| CC12CC3CC(O)(C1)CC(C(=O)O)(C3)C2 (configuration not stated) | 3.2 |
| CC(=O)Nc1cccc(NS(=O)(=O)c2ccc([N+](=O)[O-])cc2)c1 | 5.6 |
| S=C(c1cn(-c2ccccc2)nc1-c1cccs1)N1CCOCC1 | 12.2 |
| CC(C)N1CCc2c(sc3nc(SCc4ccc(Cl)cc4)n(-c4ccccc4)c(=O)c23)C1 | -11.9 |
| CC(=O)OC(OC(C)=O)C12C=CC(O1)C1C(=O)N(c3cccc([N+](=O)[O-])c3)C(=O)C12 (configuration not stated) | -19.6 |
| CC1=C(C(=O)OCCOc2ccccc2)C(c2ccccc2F)C2=C(CCCC2=O)N1 (configuration not stated) | -1.3 |
| CS(=O)(=O)N1CCN(c2ccc([N+](=O)[O-])c(N3CCOCC3)c2)CC1 | -6 |
| CCCN(CCC)C(=O)c1ccccc1NC(=O)c1cccnc1 | -0.2 |
| CN1CCC(O)(c2ccccc2)C(C)(C)C1 (configuration not stated) | -9.2 |
| CCOC(=O)C1=C(C)NC(=S)NC1c1ccc(Cl)c(Cl)c1 (configuration not stated) | -2.8 |
| COc1ccc(N2CC(C(=O)N/N=C/c3ccc([N+](=O)[O-])cc3)CC2=O)cc1 (configuration not stated) | 1.6 |
